# About 11,000 (3.1%) of roughly 360,000 compounds were called active. Inconclusive results, whose numbers are uncertain, are shown with a selection of clear calls. Calls follow the shape of the dose curve; as a rule, active = well fitted inhibition curve with a large enough effect; inconclusive = small, poorly fitted or top-dose-only effect; inactive = no such curve, though single readings can be large or run the other way. No potency is given beside an inconclusive call; the fits are too rough.
# Biological target: Schistosoma mansoni thioredoxin glutathione reductase (TGR) (UniProt Q962Y6)
# Experiment: qHTS Assay for the Inhibitors of Schistosoma Mansoni Peroxiredoxins; also: nearly all actives have a fitted effect of over 60% in size
# Details: purified TGR, DTNB reduction, TNB absorbance 405 nm; activity change, negative = inhibition: at 114 µM (top of the series) unless noted
# Summary of the method: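 Kinetic colorimetric format: TGR-catalysed, NADPH-driven DTNB reduction monitored via TNB absorbance. Enzyme dispensed at 20 nM; compound exposure 15 min at room temperature before reaction start.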
# % is scaled to controls: 0 for no effect and ±100 for the full control effect; potency is read from the fitted curve at half-maximal effect; tags tell the direction and shape of the fitted curve.
SMILES,"activity change, negative = inhibition",Potency
Cc1cc(-n2c(C)nc3ccccc3c2=O)ccc1NC(=O)c1cccc([N+](=O)[O-])c1C,inactive: -1.36%,
CCOC(=O)/C=C(\C)N1N=C(c2ccccc2)CC1c1ccccc1 (stereo not given),,"inconclusive [inhibitor, partial curve]"
CCN1C(=O)N/C(=C/c2ccc(C)o2)C1=O,,active: 35.5 µM
COc1cc([N+](=O)[O-])ccc1N1C(=O)CC(Sc2nccc(C)n2)C1=O (stereo not given),,"inconclusive [inhibitor, partial curve, poor fit]"
O=C1CC(=O)N(Cc2cccs2)C(=O)N1,,"inconclusive [inhibitor, full curve, poor fit]"
O=C(/C=C/c1ccccc1O)c1ccc(Cl)cc1,,"inconclusive [inhibitor, full curve, poor fit]"
Cc1cccc(-n2c(O)c(C)c(=O)[nH]c2=S)c1,,active: 39.8 µM
CCOC(=O)Cc1csc(NC(=O)/C=C/c2ccc(Br)o2)n1,,active: 10 µM
O=C(O)/C=C/C(=O)Nc1ccc(C2(c3ccc(NC(=O)/C=C/C(=O)O)cc3)c3ccccc3-c3ccccc32)cc1,,"inconclusive [inhibitor, partial curve]"
COc1ccc(-c2nc(CSCC(=O)N3CCN(C(=O)c4ccco4)CC3)c(C)o2)cc1OC,,"inconclusive [inhibitor, partial curve]"
Cc1ccc(S(=O)(=O)N2CCCN(C(C)c3nc4ccccc4c(=O)[nH]3)CC2)cc1 (stereo not given),,"inconclusive [inhibitor, single point]"
O=C1NC(=O)C2(Cc3ccccc3N3CCCC32)C(=O)N1c1ccc(Cl)cc1 (stereo not given),,"inconclusive [inhibitor, partial curve]"
O=C(COC(=O)c1cc(-c2cccs2)nc2ccccc12)NCc1ccco1,,active: 39.8 µM
CC(=O)OCC1=C(C(=O)O)N2C(=O)C(NC(=O)COc3ccc(F)cc3)C2SC1 (stereo not given),,active: 14.1 µM
O=C1SC(c2ccccc2)=N/C1=C/c1ccco1,,"inconclusive [inhibitor, single point]"
O=c1[nH]c(=O)n(Cc2ccc(F)cc2)c(O)c1C=NCCN1CCCCC1,,"inconclusive [inhibitor, full curve]"
COc1ccc(NC(=S)NC(=O)/C=C/c2ccco2)c(OC)c1,,"inconclusive [inhibitor, partial curve, poor fit]"
CC1=CC(C)(C)Nc2ccc(OS(=O)(=O)c3ccc(C)cc3)cc21,,"inconclusive [inhibitor, partial curve]"
O=C(Nc1cccc2ccccc12)N(CCO)C1CCS(=O)(=O)C1 (stereo not given),inactive: -5.54%,
O=S1(=O)CCC(NC(=S)SCCOc2ccccc2)C1 (stereo not given),,"inconclusive [inhibitor, partial curve, poor fit]"

SMILES,"activity change, negative = inhibition",Potency
CC1(C)CC(=O)C2=C(C1)OC(N)=C([N+](=O)[O-])C2c1ccc(C#N)s1 (stereo not given),,"inconclusive [inhibitor, partial curve, poor fit]"
O=C(OCC(=O)N1CCN(C(=O)c2ccco2)CC1)c1cccc(O)c1,,"inconclusive [inhibitor, partial curve]"
Cc1ccc(OCc2nc(C#N)c(NCc3ccco3)o2)cc1,,"inconclusive [inhibitor, partial curve]"
Cc1cccc(-c2nc(CS(=O)CC(=O)NCc3ccco3)c(C)o2)c1 (stereo not given),,"inconclusive [inhibitor, partial curve, poor fit]"
COc1ccccc1CN(Cc1cc2cc3c(cc2[nH]c1=O)OCCO3)Cc1nnnn1Cc1ccco1,,"inconclusive [inhibitor, partial curve]"
CC1CCCC/C1=N\NC(=S)Nc1cccnc1 (stereo not given),,"inconclusive [inhibitor, partial curve]"
O=C1c2ccccc2C(Nc2ccc(S(=O)(=O)N3CCOCC3)cc2)N1Cc1ccco1 (stereo not given),,"inconclusive [inhibitor, partial curve]"
CC1=C(C(=O)NCc2ccco2)C2(CCC(C)CC2)OC1=O (stereo not given),,"inconclusive [inhibitor, partial curve]"
Cc1cccc(NCC(O)Cn2cnc3c2c(=O)n(C)c(=O)n3C)c1 (stereo not given),,"inconclusive [inhibitor, partial curve, poor fit]"
CC(=O)N/N=C(\C)c1cccc(NC(=O)c2cccs2)c1,inactive: -5.91%,
CCCCCCSc1ccc([C@@H]2[C@H]3C(=O)N(C)C(=O)[C@H]3[C@]3(C(=O)OC)CCCCN23)cc1OC,,"inconclusive [inhibitor, full curve]"
Cc1ccc(S(=O)(=O)/N=C2/NC(=O)/C(=C\c3ccco3)S2)cc1,,"inconclusive [inhibitor, partial curve]"
CN1CCN(CC(=O)N2CCn3c4c(c5cc(C6CCCCC6)ccc53)CCCC42)CC1 (stereo not given),inactive: -1.25%,
O=C(CCC1N=C2c3ccccc3N=C(SCc3cccc(Cl)c3)N2C1=O)NCc1ccco1 (stereo not given),,"inconclusive [inhibitor, partial curve]"
O=C(CSc1nc2c(c(C(F)(F)F)n1)CCc1ccccc1-2)NCc1ccco1,,"inconclusive [inhibitor, partial curve]"
CCCCNC(=O)c1ccc(-c2nc(CN3CCc4ccccc43)c(C)o2)cc1,,"inconclusive [inhibitor, single point]"
Cc1cc(/C=C2\NC(=O)N(Cc3ccc(Cl)cc3)C2=O)c(C)n1C,,"inconclusive [inhibitor, partial curve]"
COc1ccc(S(=O)(=O)NCC(c2ccco2)S(=O)(=O)c2cccs2)cc1OC (stereo not given),,active: 0.282 µM
CCOc1ccc(NC(=O)c2cccc(OC(=S)N3CCOCC3)c2)cc1,inactive: -6.58%,
C#CCOCCOCCOCCNc1nc(N2CCN(C(=O)CCCCCCCCCCNC(=O)[C@H](CCCN=C(N)N)n3cc(C[C@@H](C)CC)nn3)CC2)nc(N2CCN(C(=O)CCCCCCCCCCNC(=O)[C@@H]([C@H](C)CC)n3cc(CCCCCN)nn3)CC2)n1,,"inconclusive [inhibitor, partial curve]"

# From PubChem BioAssay AID485364 (National Center for Advancing Translational Sciences (NCATS), 2010)
